# The full ranking holds about 33,000 sequences; the median of “E-score (-0.5 to 0.5)” is about -0.041, and the highest 2% start at about 0.37. The list shows a part of the results.
# Target: T1, Ecm22 (UniProt Q05958)
# T1 sequence: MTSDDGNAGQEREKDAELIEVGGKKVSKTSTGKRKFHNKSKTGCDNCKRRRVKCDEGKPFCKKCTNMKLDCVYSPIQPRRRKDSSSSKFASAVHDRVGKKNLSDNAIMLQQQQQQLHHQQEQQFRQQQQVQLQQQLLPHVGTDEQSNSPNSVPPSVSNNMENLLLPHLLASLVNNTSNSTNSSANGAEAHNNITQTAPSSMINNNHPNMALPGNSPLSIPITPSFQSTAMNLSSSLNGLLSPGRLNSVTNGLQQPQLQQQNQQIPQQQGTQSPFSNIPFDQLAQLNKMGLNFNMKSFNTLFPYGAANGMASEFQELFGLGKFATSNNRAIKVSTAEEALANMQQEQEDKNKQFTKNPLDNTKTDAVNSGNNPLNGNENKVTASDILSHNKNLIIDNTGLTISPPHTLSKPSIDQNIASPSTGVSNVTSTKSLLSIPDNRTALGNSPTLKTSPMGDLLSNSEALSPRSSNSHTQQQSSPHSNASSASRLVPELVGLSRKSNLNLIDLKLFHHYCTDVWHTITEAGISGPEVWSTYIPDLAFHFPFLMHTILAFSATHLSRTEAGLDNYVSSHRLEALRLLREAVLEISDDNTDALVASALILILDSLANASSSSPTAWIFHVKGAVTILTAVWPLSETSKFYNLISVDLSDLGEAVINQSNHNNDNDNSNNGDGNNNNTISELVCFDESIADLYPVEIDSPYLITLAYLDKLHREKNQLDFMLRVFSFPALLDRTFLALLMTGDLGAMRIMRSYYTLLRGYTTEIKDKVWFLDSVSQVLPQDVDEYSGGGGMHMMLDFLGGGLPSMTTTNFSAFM
# Assay: PBM E-score (8-mer binding enrichment) (E-score (-0.5 to 0.5)); higher = stronger / more preferred TF binding; most listed sequences are background and not binding sites
# Conditions: protein concentration: 200 nM; construct: GST-full length
# Procedure, shortened: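 The E-score, a modified Wilcoxon-Mann-Whitney statistic, was computed by the Universal PBM Analysis Suite for every ungapped eight-base word pooled with its reverse complement. Scans behind it were normalised with masliner after bound GST-tagged yeast transcription factors were detected with fluorescent anti-GST. The proteins, at about 100-200 nM, had been applied to universal all-10-mer Agilent arrays made double-stranded by primer extension.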
row,Sequence,PBM E-score
1,CGGGATCC,0.127
2,CTTTACTA,-0.106
3,CCGTGAAA,-0.0316
4,GCCCCTGA,-0.107
5,AACTTGCA,-0.0318
6,ACGGTTTG,0.198
7,CTCGGCCA,-0.103
8,ATACAGCG,-0.0852
9,CTTATAAC,0.0729
10,GCTCAGTA,0.0954
11,ACGAGTAA,0.396
12,AAAGTTTG,-0.161
13,CTACCCAC,-0.12
14,CTGCGAGA,-0.0526
15,ACCTACTG,-0.134
16,ACTGCTGG,-0.247
17,CGTGCACC,-0.0463
18,GATCACCC,0.0381
19,ACAATTCA,-0.0669
20,TCCTGTAA,-0.0782
21,ACACCTGC,-0.184
22,ATGTATTC,-0.0935
23,CCCGGGCG,-0.197
24,ACGTACTG,0.0651
25,CACGTAGG,-0.156
26,CGGAATTC,0.0717

row,Sequence,PBM E-score
1,ACCGTGCC,-0.182
2,CTTATTAC,0.0266
3,AGCGAGAA,0.246
4,ACGTATCG,0.192
5,CGCAGTGC,-0.127
6,TCAACAGA,-0.0821
7,ACGTGCTC,-0.0831
8,CAGAAGCA,-0.0994
9,ATACTAAC,0.0809
10,ACGGCTCA,0.0407
11,ATATAGAG,-0.131
12,CAGAATCG,0.17
13,ACCTCCTA,-0.181
14,AGTTGGAT,-0.0454
15,CGACATAC,0.216
16,AGTTACAC,0.0121
17,GCAGGATA,-0.19
18,GACGGCAC,-0.0593
19,GTAAAGTA,0.147
20,AACCAGAG,-0.082
21,CAAGTGTC,-0.133
22,GCACGACC,-0.219
23,CCAATGTA,-0.123
24,AAGCGGGT,0.0621
25,ATTCCCTC,-0.146
26,GAACAGAA,-0.142

row,Sequence,PBM E-score
1,CCTTAAGA,-0.114
2,CGCAGGTA,0.161
3,AGCCGGAC,0.175
4,CGCCCCCC,-0.269
5,GGGGAGAA,-0.027
6,CGTTACTC,0.111
7,CCGGTTAA,0.132
8,TATCATGA,0.0463
9,GACCCGAC,0.136
10,CCAAACGG,0.287
11,ACCTTATA,-0.14
12,ACCTAGAA,-0.183
13,AATTGGCC,-0.154
14,ATTTATAC,0.401
15,GCCTTCCA,-0.298
16,CAAATTGG,-0.0354
17,AAATGGGA,-0.226
18,AGACGGCC,-0.223
19,GCGAAAAA,0.125
20,CACTTTGG,-0.0484
21,TCGATAAA,0.138
22,CATCTAAG,-0.146
23,AGACCTAC,-0.0432
24,GCCTTCAC,-0.115
25,AGGGGTTA,-0.237
26,GGCTTGAA,-0.248

row,Sequence,PBM E-score
1,CCAACCCG,0.0982
2,TAATCGAA,0.134
3,CCTAGCTC,-0.116
4,AACATGCA,-0.0597
5,AGACCCTG,-0.229
6,GGTTTTAA,0.0221
7,CCACTGCA,-0.32
8,CAAGATGG,-0.194
9,GTGCTTTA,0.0162
10,CACACATG,-0.168
11,CCTTTGCC,-0.276
12,AATTCGTA,0.441
13,GAGAGCGA,0.306
14,GGTGTGAA,-0.108
15,CGTTGCAG,0.0991
16,CCTAATAG,-0.169
17,ACATTAGA,0.00657
18,ACACCGTG,-0.08
19,AATGGCGA,-0.0708
20,CCGGTTGC,0.0911
21,CGAGACCG,0.228
22,GGCAATAC,0.0369
23,GCCTTCGA,-0.0479
24,AAAAGATA,0.00952
25,CCATCCCG,-0.189
26,CTTATCCA,-0.189

row,Sequence,PBM E-score
1,ACCATGGC,0.0147
2,TATCTCAA,0.0752
3,AACCGATA,0.312
4,AACTCCTG,-0.151
5,GATTTGCA,-0.0667
6,CTTCATAC,-0.00642
7,ATCAACAC,0.0216
8,ACATCTAG,-0.0359
9,TCTAGACA,-0.134
10,CTGAAAGA,-0.141
11,CCGTGCGA,0.176
12,AGTGGAAA,-0.189
13,AAGCAGAC,-0.125
14,ACGTAAGA,0.105
15,TAATTCAA,0.165
16,GACTCGAA,-0.121
17,ATCGGGCC,-0.118
18,CTGTCGCC,-0.197
19,GCGAGTCC,-0.0135
20,CGCCTGGA,-0.216
21,GAGCTCTA,-0.226
22,CTTGAGCC,-0.271
23,AATCAACA,0.0785
24,ATAGGCAT,-0.0281
